Whole data set: some 33,000 sequences, median “E-score (-0.5 to 0.5)” near -0.035, cut for the highest 2% near 0.34. This is one part of the list.
Molecular target: T1, Mot3 (UniProt P54785)
T1 sequence: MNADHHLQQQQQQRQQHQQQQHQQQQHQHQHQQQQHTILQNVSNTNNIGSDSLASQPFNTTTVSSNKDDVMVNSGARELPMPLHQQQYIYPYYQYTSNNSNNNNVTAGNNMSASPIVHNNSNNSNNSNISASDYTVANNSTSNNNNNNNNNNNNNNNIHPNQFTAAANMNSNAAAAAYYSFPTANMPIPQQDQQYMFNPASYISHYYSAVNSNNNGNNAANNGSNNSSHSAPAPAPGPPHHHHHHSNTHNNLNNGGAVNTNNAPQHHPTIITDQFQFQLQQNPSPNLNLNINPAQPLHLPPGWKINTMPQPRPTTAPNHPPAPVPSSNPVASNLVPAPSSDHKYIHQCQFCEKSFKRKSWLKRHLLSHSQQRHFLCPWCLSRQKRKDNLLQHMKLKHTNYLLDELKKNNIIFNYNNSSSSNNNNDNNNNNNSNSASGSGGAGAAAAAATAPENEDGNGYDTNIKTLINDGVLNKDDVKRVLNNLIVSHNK
Assay: PBM E-score (8-mer binding enrichment) (E-score (-0.5 to 0.5)); higher = stronger / more preferred TF binding; most listed sequences are background and not binding sites
Conditions: protein concentration: 200 nM; construct: GST-full length
Description: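 Universal 'all 10-mer' protein binding microarrays (Agilent AMADID 015681) probed with GST-tagged S. cerevisiae TFs (full-length or DBD) made by in vitro transcription/translation (PURExpress), about 100-200 nM. Bound TF was detected with fluorescent anti-GST. Each ungapped 8-mer (which stands for itself and its reverse complement) is scored by the PBM enrichment score (E-score), a modified Wilcoxon-Mann-Whitney statistic from -0.5 to +0.5, computed with the Universal PBM Analysis Suite. Scale: above 0.35 generally sequence-specific binding.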

Sequence | PBM E-score
AAGAACTC | 0.214
GCCTGAGA | 0.0257
CTAAGCCC | -0.272
GATGTCGA | 0.215
CGATCGTA | -0.102
CTGCCCTA | -0.196
AAGAATGG | -0.156
TAGGAGCA | 0.0656
AATATTTC | 0.0305
AGTTTGCG | -0.0945
AACTGGCG | -0.0219
CGAGGGAC | -0.299
CTACCTAG | 0.0595
AAGGTAAT | 0.34
GTGATTAA | 0.11
GATTCTAC | 0.0482
ACGGAATC | -0.165
AAAAGTCG | -0.0841
GCACGACA | 0.217
TCGAGAGA | -0.237
CGAACTCA | -0.0943
ATACTCCA | -0.0549

Sequence | PBM E-score
ACCCTGTG | 0.0798
CCCGGTTA | -0.245
GCAGCCAC | -0.276
GCGGTTCC | 0.0435
AAACGCGT | 0.235
AACTCCAT | -0.147
CAATCTCA | -0.0375
CGGCCGCA | -0.243
AAACCAGT | -0.0222
CCGTGGGC | -0.265
AGCCAGTC | -0.089
AGAAGCGG | -0.205
ACTAAGCT | -0.0746
AGACTGCC | -0.196
CACCACCG | -0.238
AGTATGAA | 0.0216
AGTTTGAG | -0.163
ACTACAGG | 0.194
CAGAGGGC | 0.0242
ACTCGGAC | -0.188
ATGACGAA | 0.154
CTACCAGC | -0.133

Sequence | PBM E-score
TAGCTAGA | -0.0751
AAGTACGG | -0.166
AACCCGGG | -0.083
GAGGGTGA | -0.208
AAGTCCCC | -0.285
CATAGTAG | 0.0366
CTATGAGC | -0.132
CAAACTTG | 0.0232
CAATGCTC | -0.168
ATTGTAAG | 0.0549
CGGCACCG | -0.0283
AATGCCGC | -0.0597
CACGACTC | 0.145
GAACAACC | 0.0492
GGCCGTGA | -0.166
ATAGGGGA | -0.199
GCAGTCGC | -0.162
CTTATAGC | 0.0809
CATCCAAC | -0.11
AGGTACCC | 0.361
ATATGCGC | 0.0367
ATATCATA | 0.121

Sequence | PBM E-score
GACGTTGC | -0.065
ATGAGGCA | 0.364
AAACGATG | -0.0398
ATATGGGC | -0.00015
TAGCTGCA | -0.0762
ACACGGTA | 0.34
ACAACGGT | 0.0418
AATCCTGC | 0.093
TACAGATA | 0.104
AAAGAGAT | -0.0413
CCACCGAC | -0.125
CTTGCTTA | -0.117
ATCCACCA | -0.155
CAAGAGCA | -0.1
CCACGCAA | 0.126
GAAGAGCA | -0.172
ACGCGCAC | 0.0217
TCAACAAA | 0.167
AACACATA | 0.312
GAAAAGGC | 0.228
TACACCGA | 0.0164
AACCCGGT | -0.235

Sequence | PBM E-score
ATATGCCA | -0.135
AATTGGGG | -0.247
AAAACGGG | 0.0717
AGGCAGCC | 0.317
CGCCTCCC | -0.274
GAAGCTCA | -0.294
TAGTTGGA | 0.0664
TCGGCTAA | -0.0724
AGACGGTA | -0.052
AGAATGAA | 0.105
ACTCGAGT | 0.00487
CACCCAGC | -0.13
AACCCGTT | -0.047
GCTCAGAC | -0.147
CTCGTTCA | 0.116
TCAAGTAA | 0.269
CTTAAATC | 0.0279
GCGTTCAA | -0.0266
ATAAGCCG | -0.177
ACGAAGTG | 0.0261
ATTTGTGG | -0.0729
